Results from the supplement of paper PMC4604168 (melanoma cell lines).
This is one part of the list. Many values rest on one well or one pass, so single values are uncertain.

Assays:
Assay in all cases: cell count relative to DMSO control; melanoma cells; higher = more viable cells
Conditions in all cases: library dose: standard library concentration; 72 h
SkMel28 = system: SkMel28
SkMel2 = system: SkMel2
SkMel30 = system: SkMel30
SkMel5 = system: SkMel5
UACC257 = system: UACC257
UACC62 = system: UACC62
WM115 = system: WM115
WM1716 = system: WM1716
WM1745 = system: WM1745
WM3526 = system: WM3526
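Further: cells treated in 1,536-well plates, then fixed and DAPI-stained, with nuclei counted from automated high-throughput microscope images.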

SMILES | cell count (SkMel28) [%] | cell count (SkMel2) [%] | cell count (SkMel30) [%] | cell count (SkMel5) [%] | cell count (UACC257) [%] | cell count (UACC62) [%] | cell count (WM115) [%] | cell count (WM1716) [%] | cell count (WM1745) [%] | cell count (WM3526) [%]
C[C@]1(O)C[C@@H](c2nc(-c3ccc4ccc(-c5ccccc5)nc4c3)c3c(N)nccn32)C1 + C[C@]1(c2nc3c(C(N)=O)cccc3[nH]2)CCCN1 [Veliparib] (first compound 2 µM, partner dose 7 µM) | 109 | 98.1 | 104 | 88.8 | 95.9 | 61.7 | 88.6 | 96.5 | 69.3 | 87.2
C[C@]1(O)C[C@@H](c2nc(-c3ccc4ccc(-c5ccccc5)nc4c3)c3c(N)nccn32)C1 + COCC[n+]1c2c(n(Cc3cnccn3)c1C)C(=O)c1ccccc1C2=O [YM155] (first compound 2 µM, partner dose 0.002 µM) | 36.2 | 38.1 | 71.8 | 28.5 | 34.5 | 61.5 | 61.3 | 46.8 | 72 | 30.1
COc1cc([C@@H]2c3cc4c(cc3[C@@H](O[C@@H]3O[C@@H]5CO[C@@H](C)O[C@H]5[C@H](O)[C@H]3O)[C@H]3COC(=O)[C@H]23)OCO4)cc(OC)c1O [etoposide] + COCC[n+]1c2c(n(Cc3cnccn3)c1C)C(=O)c1ccccc1C2=O [YM155] (first compound 0.1 µM, partner dose 0.002 µM) | 37.7 | 44.2 | 72.7 | 22.6 | 26.3 | 64.2 | 47.2 | 49.9 | 74 | 32.4
Cn1cnc2c(F)c(Nc3ccc(Br)cc3Cl)c(C(=O)NOCCO)cc21 [selumetinib] + C[C@]1(c2nc3c(C(N)=O)cccc3[nH]2)CCCN1 [Veliparib] (first compound 0.075 µM, partner dose 7 µM) | 50.6 | 47.6 | 60 | 61.3 | 87.6 | 58.8 | 53.4 | 76.8 | 69 | 53.6
COc1cc([C@@H]2c3cc4c(cc3[C@@H](O[C@@H]3O[C@@H]5CO[C@@H](C)O[C@H]5[C@H](O)[C@H]3O)[C@H]3COC(=O)[C@H]23)OCO4)cc(OC)c1O [etoposide] + C#Cc1cccc(Nc2ncnc3cc(OCCOC)c(OCCOC)cc23)c1 [erlotinib] (first compound 0.1 µM, partner dose 4 µM) | 48.2 | 46.4 | 71.6 | 66.8 | 82.1 | 43.4 | 68.8 | 47.5 | 64.4 | 55.9
C[C@]1(O)C[C@@H](c2nc(-c3ccc4ccc(-c5ccccc5)nc4c3)c3c(N)nccn32)C1 + C[C@@H]1CCN(C(=O)CC#N)C[C@@H]1N(C)c1ncnc2[nH]ccc12 [CP690550] (first compound 2 µM, partner dose 5 µM) | 99.5 | 75.1 | 106 | 94.8 | 83.2 | 99.3 | 99.4 | 98.9 | 74.9 | 74.2
C[C@]1(O)C[C@@H](c2nc(-c3ccc4ccc(-c5ccccc5)nc4c3)c3c(N)nccn32)C1 + C=C(c1ccc(C(=O)O)cc1)c1cc2c(cc1C)C(C)(C)CCC2(C)C [Bexarotene] (first compound 2 µM, partner dose 10 µM) | 55.2 | 60.9 | 105 | 69.9 | 86.6 | 58.4 | 109 | 90.1 | 47.4 | 54.7
COc1cc([C@@H]2c3cc4c(cc3[C@@H](O[C@@H]3O[C@@H]5CO[C@@H](C)O[C@H]5[C@H](O)[C@H]3O)[C@H]3COC(=O)[C@H]23)OCO4)cc(OC)c1O [etoposide] + O=C(O)c1ccc2c(c1)nc(Nc1cccc(Cl)c1)c1ccncc12 [CX4945] (first compound 0.1 µM, partner dose 2 µM) | 81.7 | 69.1 | 71.6 | 88.6 | 97.5 | 64.7 | 87.8 | 72 | 86.7 | 78.2
Cn1cnc2c(F)c(Nc3ccc(Br)cc3Cl)c(C(=O)NOCCO)cc21 [selumetinib] + CC1(C)NC(=O)N(c2ccc([N+](=O)[O-])c(C(F)(F)F)c2)C1=O [nilutamide] (first compound 0.075 µM, partner dose 5 µM) | 52.7 | 52.7 | 54.6 | 65.8 | 85.2 | 75.2 | 70 | 84.4 | 80.9 | 57.6
COc1cc([C@@H]2c3cc4c(cc3[C@@H](O[C@@H]3O[C@@H]5CO[C@@H](C)O[C@H]5[C@H](O)[C@H]3O)[C@H]3COC(=O)[C@H]23)OCO4)cc(OC)c1O [etoposide] + CN(NC(=O)CC(=O)NN(C)C(=S)c1ccccc1)C(=S)c1ccccc1 [STA4783] (first compound 0.1 µM, partner dose 0.03 µM) | 27.3 | 59.9 | 90.9 | 44.7 | 87.2 | 35.6 | 21.5 | 67.3 | 55.1 | 112
